Results from PubChem BioAssay AID651820 (National Center for Advancing Translational Sciences (NCATS), 2012).
Values joined by “and” are separate entries in the source; they are usually repeats but may differ in a detail not shown here. Equal entries are not always repeated. Out of some 340,000 compounds screened, about 12,000 (3.5%) were called active. The inconclusive results got no clear call from the source; some entries with a clear call stand among them for comparison. Calls come from the whole dose curve; as a rule, active = well fitted inhibition curve with a large enough effect; inconclusive = small, poorly fitted or top-dose-only effect, or another doubt; inactive = no such curve, though single readings can be large or run the other way. Potencies beside an inconclusive call are fits to weak or partial responses and may not hold up.

Assay: qHTS Assay for Inhibitors of Hepatitis C Virus (HCV)
Conditions: Huh7.5.1 HCVcc-Cre (HCVcc is cell-culture hepatitis C virus) infection, luciferase reporter, 44 h; activity change, negative = inhibition: at 41.8 µM (top of the series)
Procedure, shortened: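 Compounds are dispensed onto cells plated 4 h earlier at 1,000 per well, with HCVcc-Cre virus (about 0.5 moi) added next. Following 44 h of culture, luminescent signal is measured for 15 sec after 15 min with substrate at room temperature.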
% is set by controls: 0 for no effect and ±100 for the full control effect; potency is the fitted concentration of half-maximal effect; tags give direction and shape of the fitted curve.

SMILES | Potency | activity change, negative = inhibition
Cc1ccc2c(CN(C)Cc3ccc(OC(F)F)cc3)cc(=O)oc2c1C | inconclusive: 14.1 µM [inhibitor, single point] | –
CCN(CC)C(=O)C1CCCN(c2ccc([N+](=O)[O-])cc2/C=N/NC(=O)c2cccc([N+](=O)[O-])c2)C1 (stereo not drawn) | inconclusive: 2.24 µM [inhibitor, full curve] | –
CCCCc1nnc2c(N(C)S(=O)(=O)c3ccc(C)cc3)nc3ccccc3n12 | – | inactive: 7.89%
Cc1nnc(SC(C)C(=O)Nc2ccc3c(c2)OCCO3)s1 (stereo not drawn) | – | inactive: 3.44%
O=S1(=O)CCOC[C@H](CC2CCCCC2)N1Cc1cccc(C(F)(F)F)c1 | inconclusive: 31.6 µM [inhibitor, single point] | –
COc1cc(OC)c(OC)cc1CN1CCN(S(=O)(=O)c2ccc(F)cc2)CC1 | inconclusive: 8.91 µM [inhibitor, partial curve] | –
CC1=C(C(=O)OCC2CCCO2)C(c2ccc(Cl)c(Cl)c2)NC(=O)N1 (stereo not drawn) | inconclusive: 31.6 µM [inhibitor, single point] | –
C=CCNC(=O)CC(=O)N/N=C/c1ccc(C(=O)OC)cc1 | – | inactive: 4.82%
CCOc1ccc(NC(=O)CN(C)C(=O)c2ccc(N3CCCCCC3)c([N+](=O)[O-])c2)cc1OCC | inconclusive: 3.16 µM [inhibitor, full curve] | –
COc1ccc(C2CCCN2C(=S)Nc2ccc(C)cc2C)cc1OC (stereo not drawn) | – | inactive: -23.8%
CCOc1ccc(NS(=O)(=O)c2cc(NC(=O)C3CC3)ccc2C)cc1Br | inconclusive: 15.8 µM [inhibitor, single point] | –
O=C(CSCc1ccccc1)Nc1ccc2c(c1)OCO2 | – | inactive: 3.14%
CC(C)(C)OC(=O)N1CCC(CC2CC(c3ccccc3)=NO2)(C(=O)O)CC1 (stereo not drawn) | – | inactive: 38.5%
Cc1ccc(N=C2NC(=O)S/C2=C\c2ccco2)cc1 | inconclusive: 3.98 µM [inhibitor, partial curve] | –
COc1cc(C2CC(=O)c3cnc(NC(=O)c4ccco4)nc3C2)cc(OC)c1OC (stereo not drawn) | inconclusive: 8.91 µM [inhibitor, single point] | –
COc1ccc2c3n([n+]([O-])c2c1)CCN=C3c1ccc(Cl)cc1 | – | inactive: 13.2%
O=C(CC1(O)C(=O)Nc2cc(Cl)cc(Cl)c21)c1ccncc1 (stereo not drawn) | active: 11.2 µM | –
Cc1cc(C)n(-c2nc3ccccc3c(=O)n2OCC(=O)OCc2ccccc2)n1 | inconclusive: 31.6 µM [inhibitor, single point] | –
CCOC(=O)C(CCCCOc1ccc([N+](=O)[O-])cc1)C(=O)OCC | – | inactive: 8.57%
COc1ccc(S(=O)(=O)N2c3cc(C)ccc3OCC2C(C)(C)C)cc1 (stereo not drawn) | inconclusive: 6.31 µM [inhibitor, full curve] | –
Cc1cc(NCCCCO)n2c(nc3ccccc32)c1C#N | inconclusive: 20 µM [inhibitor, single point] | –
Cc1cnc(CNC(=O)CC2C(=O)NCCN2Cc2cccc(F)c2F)cn1 (stereo not drawn) | – | inactive: 7.94%
COc1cccc(NC(=O)Nc2nc(SC)ns2)c1 | – | inactive: -8.89%
C=CCOc1c(Br)cc(/C=N/NC(=O)Cc2ccc(C(F)(F)F)cc2[N+](=O)[O-])cc1OC | inconclusive: 5.62 µM [inhibitor, single point] | –
COc1ccc(N2CCN(C(CNC(=O)COc3ccccc3)c3ccco3)CC2)cc1 (stereo not drawn) | inconclusive: 12.6 µM [inhibitor, partial curve, poor fit] | –

SMILES | Potency | activity change, negative = inhibition
CCN1CCN(c2c(Cl)cccc2NC(=O)c2cc3ccccc3o2)CC1 | inconclusive: 22.4 µM [inhibitor, single point] | –
CCOC1(OCC)C(c2ccc(Cl)cc2)C(C#N)(C#N)C1(OCC)OCC (stereo not drawn) | – | inactive: -25.2%
CCOc1ccc(N2C(=O)CC(N3CCN(c4ccc([N+](=O)[O-])cc4)CC3)C2=O)cc1 (stereo not drawn) | – | inactive: 4.99%
CCOc1ccc2nc(NCCCNS(=O)(=O)c3ccc(F)cc3)c(C#N)cc2c1 | inconclusive: 5.62 µM [inhibitor, single point] | –
Clc1cccc(NCc2nnc(SCc3ccc(Cl)cc3Cl)o2)c1 | inconclusive: 31.6 µM [inhibitor, single point] | –
Cn1ncc(N=Cc2ccccc2)c1C(N)=O | – | inactive: 5.25%
O=C(NCC1CCCCC1)C1(CC2CC(c3ccc(Cl)cc3)=NO2)CCNCC1 (stereo not drawn) | inconclusive: 3.16 µM [inhibitor, single point] | –
CSc1nc(N2CCN(c3ccccc3Cl)CC2)c2ccccc2n1 | inconclusive: 3.55 µM [inhibitor, partial curve, poor fit] | –
CCCCOc1ccccc1NC(=O)Cn1c(-c2nonc2N)nc2ccccc21 | inactive and inconclusive: 2.51 µM [inhibitor, full curve] | –
CC(=O)Nc1nc2ccc(NC(=O)c3ccco3)cc2s1 | inconclusive: 3.55 µM [inhibitor, partial curve] | –
COc1ccc(NC(=O)CN2CCCCCC2)cc1OC | – | inactive: -3.43%
O=S(=O)(NC1CCSc2ccccc21)c1ccc(Cl)nc1 (stereo not drawn) | – | inactive: -1.34%
O=C(NCc1ccco1)c1cc(-c2ccc(F)cc2)on1 | – | inactive: 8.85%
COc1ccccc1C(CNC(=O)CSc1ccc2ccccc2c1)N(C)C (stereo not drawn) | inconclusive: 31.6 µM [inhibitor, single point] | –
COc1ccc(Cn2cc(CN3CCS(=O)(=O)N(Cc4ccc(-c5cccc(Cl)c5)cc4)C(C)C3=O)nn2)cc1 (stereo not drawn) | inconclusive: 10 µM [inhibitor, partial curve, poor fit] | –
O=[N+]([O-])c1ccc(C[n+]2cccc3ccc4cccnc4c32)cc1 | inconclusive: 10 µM [inhibitor, partial curve] | –
COCCCNC(=O)/C(C#N)=C/c1cc(C)[nH]c1C | inconclusive: 31.6 µM [inhibitor, single point] | –
O=[N+]([O-])c1cccc(/C=N/Nc2ccccn2)c1 | – | inactive: -5.24%
O=S(=O)(/C=C/c1ccccc1)NCc1ccccc1Cl | inconclusive: 31.6 µM [inhibitor, single point] | –
Cc1ccc(C(=O)NC2CCN(S(=O)(=O)c3ccccc3F)CC2)cc1 | – | inactive: 9.93%
C[N+](C)(C)CC(=O)N/N=C/c1c2ccccc2cc2ccccc12 | inconclusive: 14.1 µM [inhibitor, single point] | –
Cc1ccc(-c2nc3ccccc3[nH]2)cc1NC(=O)c1ccc2c(c1)OCO2 | active: 11.2 µM | –
Oc1ccc(Nc2nc(-c3cccs3)cs2)cc1 | inconclusive: 31.6 µM [inhibitor, single point] | –
Cc1cc(-c2ccccc2)nc(N/N=C/c2ccc(O)cc2O)n1 | active: 10 µM | –
O=C(Nc1ccc(N2CCOCC2)cc1)c1cccc(S(=O)(=O)N2CCOCC2)c1 | inconclusive: 11.2 µM [inhibitor, partial curve, poor fit] | –

SMILES | Potency | activity change, negative = inhibition
Cn1ncc2c(NNC(=O)c3ccc(Cl)c(Cl)c3)ncnc21 | – | inactive: 8.32%
Clc1cccc(-c2ccc(-c3nc4ccccn4c3NCc3ccccc3)cc2)c1 | active: 14.1 µM | –
N#Cc1ccc2c(c1)nnn2-c1ccccc1 | – | inconclusive: -40% [inhibitor]
O=C(c1cnn2c(C(F)(F)F)cc(-c3ccco3)nc12)N1CCc2ccccc2C1 | inconclusive: 31.6 µM [inhibitor, single point] | –
O=C(Nc1nc(=O)n(C(=O)C2CC2)s1)c1ccccc1 | inconclusive: 31.6 µM [inhibitor, single point] | –
Cc1cc(C)cc(N(CCC#N)C(=O)CSc2ncnc3sccc23)c1 | inconclusive: 5.01 µM [inhibitor, single point] | –
O=C(CCS(=O)(=O)Cc1cccc(Cl)c1)NCCc1ccccc1 | – | inactive: -2.77%
Cc1ccc(Cl)cc1NC(=O)COC(=O)CCN1C(=O)C2CC=CCC2C1=O (stereo not drawn) | inconclusive: 0.501 µM [inhibitor, partial curve, poor fit] | –
Nc1cc([N+](=O)[O-])ccc1OCc1ccccc1 | inconclusive: 2.51 µM [inhibitor, full curve] | –
CCCOc1ccc(C(=O)CCC(=O)Nc2ccc(N3CCN(C)CC3)cc2)cc1 | – | inactive: 4.45%
C/C(=N/Nc1nc(C)c(C)s1)c1cccc([N+](=O)[O-])c1 | inconclusive: 11.2 µM [inhibitor, partial curve] | –
CCOc1ccccc1/C=N/n1nnnc1N | inconclusive: 31.6 µM [inhibitor, single point] | –
Cc1ccc(C(C)(C)C)cc1S(=O)(=O)N1CC(=O)Nc2ccccc21 | inconclusive: 14.1 µM [inhibitor, single point] | –
CNc1cc(C)nc(-n2nc(C)cc2C)n1 | – | inactive: 3.56%
Cc1cccc(Cn2c(NCC(C)O)nc3c2c(=O)n(C)c(=O)n3C)c1 (stereo not drawn) | active: 4.47 µM | –
O=C(Nc1nc(-c2ccc(Cl)s2)cs1)c1ccco1 | inconclusive: 3.55 µM [inhibitor, single point] | –
COCCOC(=O)c1[nH]c2c(c1C)C(=O)CC(c1cc(OC)c(OC)c(OC)c1)C2 (stereo not drawn) | active: 12.6 µM | –
CC(C)(C)C(=O)OCCNc1nc(-c2ccccc2)nc2ccccc12 | inconclusive: 12.6 µM [inhibitor, single point] | –
O=C(CN1CCOCC1)n1c2ccccc2c2ccccc21 | inconclusive: 12.6 µM [inhibitor, single point] | –
CCOC(=O)c1cccc(NC(=O)CCc2nc(-c3ccc(C)cc3)no2)c1 | inconclusive: 14.1 µM [inhibitor, single point] | –
CC(Sc1nncs1)C(=O)Nc1ccc2c(c1)OCCO2 (stereo not drawn) | – | inactive: -2.59%
Cc1ccnc(NC(=O)c2cccc(S(=O)(=O)N3CCOCC3)c2)c1 | – | inactive: -8.32%
CCOC(=O)c1c2c(n(-c3ccc(OC)cc3)c1C)C(=O)C(=O)c1ccccc1-2 | active: 7.94 µM | –
